# From the supplement of paper PMC8728848
# The list shows a part of the results.
# B1: Nictaba (Nicotiana tabacum), Q94EW1 (protein)
# chain: MQGQWIAARDLSITWVDNPQYWTWKTVDPNIEVAELRRVAWLDIYGKIETKNLIRKTSYAVYLVFKLTDNPRELERATASLRFVNEVAEGAGIEGTTVFISKKKKLPGELGRFPHLRSDGWLEIKLGEFFNNLGEDGEVEMRLMEINDKTWKSGIIVKGFDIRPN
# Assays:
# Experiment in all cases: glycan array binding signal (z-score within array); higher = stronger binding
# Details in all cases: glycan notation: IUPAC condensed, linker removed
# [1] = molecular target: Neu5Ac(a2-3)Gal(b1-4)[Fuc(a1-3)]GlcNAc(b1-3)GalNAc
# Outline: (§1)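 From the Consortium for Functional Glycomics database, 3228 arrays were curated, keeping only those whose protein sequence was available. Binding is given as a within-array Z-score averaged across arrays sharing a protein sequence and across linkers. Negative Z-scores can be read as non-binding.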
# [2] = molecular target: Neu5Ac(a2-3)Gal(b1-4)[Fuc(a1-3)]GlcNAc(b1-6)[Gal(b1-3)]GalNAc
# Outline: as §1
# [3] = molecular target: Neu5Ac(a2-3)Gal(b1-4)[Fuc(a1-3)]GlcNAc(b1-6)[Neu5Ac(a2-3)Gal(b1-3)]GalNAc
# Outline: as §1
# [4] = molecular target: Neu5Ac(a2-3)Gal(b1-4)[Fuc(a1-3)]GlcNAc6S
# Outline: as §1
# [5] = molecular target: Neu5Ac(a2-3)Gal6S(b1-4)GlcNAc
# Outline: as §1
# [6] = molecular target: Neu5Ac(a2-3)Gal6S(b1-4)[Fuc(a1-3)]GlcNAc
# Outline: as §1
# Neu5Ac(a2-3)GalNAc = molecular target: Neu5Ac(a2-3)GalNAc
# Outline: as §1
# [7] = molecular target: Neu5Ac(a2-3)GalNAc(b1-4)GlcNAc
# Outline: as §1
# [8] = molecular target: Neu5Ac(a2-3)[GalNAc(b1-4)]Gal(b1-4)Glc
# Outline: as §1
# [9] = molecular target: Neu5Ac(a2-3)[GalNAc(b1-4)]Gal(b1-4)GlcNAc
# Outline: as §1
# [10] = molecular target: Neu5Ac(a2-3)[GalNAc(b1-4)]Gal(b1-4)GlcNAc(b1-3)GalNAc
# Outline: as §1
# [11] = molecular target: Neu5Ac(a2-3)[Neu5Ac(a2-6)]GalNAc
# Outline: as §1
# Neu5Ac(a2-6)Gal = molecular target: Neu5Ac(a2-6)Gal
# Outline: as §1
# [12] = molecular target: Neu5Ac(a2-6)Gal(b1-3)GlcNAc(b1-3)[Gal(b1-4)GlcNAc(b1-6)]Gal(b1-4)Glc
# Outline: as §1
# Neu5Ac(a2-6)Gal(b1-4)Glc = molecular target: Neu5Ac(a2-6)Gal(b1-4)Glc
# Outline: as §1
# [13] = molecular target: Neu5Ac(a2-6)Gal(b1-4)GlcNAc
# Outline: as §1
# [14] = molecular target: Neu5Ac(a2-6)Gal(b1-4)GlcNAc(b1-2)Man
# Outline: as §1
# [15] = molecular target: Neu5Ac(a2-6)Gal(b1-4)GlcNAc(b1-2)Man(a1-3)Man(b1-4)GlcNAc(b1-4)GlcNAc
# Outline: as §1
# [16] = molecular target: Neu5Ac(a2-6)Gal(b1-4)GlcNAc(b1-2)Man(a1-3)[Gal(b1-4)GlcNAc(b1-2)Man(a1-6)]Man(b1-4)GlcNAc(b1-4)GlcNAc
# Outline: as §1
# [17] = molecular target: Neu5Ac(a2-6)Gal(b1-4)GlcNAc(b1-2)Man(a1-3)[GlcNAc(b1-2)Man(a1-6)]Man(b1-4)GlcNAc(b1-4)GlcNAc
# Outline: as §1
# [18] = molecular target: Neu5Ac(a2-6)Gal(b1-4)GlcNAc(b1-2)Man(a1-3)[GlcNAc(b1-2)Man(b1-4)GlcNAc(b1-2)Man(a1-6)]Man(b1-4)GlcNAc(b1-4)GlcNAc
# Outline: as §1
binder,measurement,setting,value
B1,glycan array binding signal (z-score),[1],-0.217
same,glycan array binding signal (z-score),[2],-0.249
same,glycan array binding signal (z-score),[3],-0.275
same,glycan array binding signal (z-score),[4],-0.265
same,glycan array binding signal (z-score),[5],-0.272
same,glycan array binding signal (z-score),[6],-0.254
same,glycan array binding signal (z-score),Neu5Ac(a2-3)GalNAc,-0.253
same,glycan array binding signal (z-score),[7],-0.22
same,glycan array binding signal (z-score),[8],-0.261
same,glycan array binding signal (z-score),[9],-0.269
same,glycan array binding signal (z-score),[10],-0.316
same,glycan array binding signal (z-score),[11],-0.311
same,glycan array binding signal (z-score),Neu5Ac(a2-6)Gal,-0.271
same,glycan array binding signal (z-score),[12],-0.287
same,glycan array binding signal (z-score),Neu5Ac(a2-6)Gal(b1-4)Glc,-0.258
same,glycan array binding signal (z-score),[13],-0.276
same,glycan array binding signal (z-score),[14],-0.387
same,glycan array binding signal (z-score),[15],1.36
same,glycan array binding signal (z-score),[16],-0.045
same,glycan array binding signal (z-score),[17],0.258
same,glycan array binding signal (z-score),[18],0.071
